In article PMC6212790:
Some of the results follow. At the low end of the ranking, values are background and their order means little.

target: T1, GST-Rok-C97-191 (UniProt O34857); assay: protein binding microarray; details: Rok is a gene silencer of Bacillus subtilis; high values mean tight binding; most listed sequences are background and not binding sites; double strand, one strand shown;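 further: rank score from −0.5 (least bound) to 0.5 (best bound)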
T1 sequence: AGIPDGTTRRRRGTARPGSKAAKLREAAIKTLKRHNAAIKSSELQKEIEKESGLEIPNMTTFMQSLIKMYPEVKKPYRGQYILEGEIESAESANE

| Sequence | binding signal |
| --- | --- |
| CAGTGAGC | -0.162 E-score |
| GACCTAAC | -0.0699 E-score |
| GCTGGTTA | 0.0982 E-score |
| AAACAACG | 0.09 E-score |
| GCACAAAA | 0.0876 E-score |
| CCGGCTAC | -0.0581 E-score |
| AATCTATA | 0.4 E-score |
| ACGTAATA | 0.252 E-score |
| GATAAGCA | 0.0731 E-score |
| CCCTGGCC | -0.377 E-score |
| GAAACCCA | -0.155 E-score |
| ATGTAAGA | 0.000177 E-score |
| CATGTGCG | -0.239 E-score |
| ACTTAAAG | -0.106 E-score |
| CGGTAGAG | -0.0194 E-score |
| AGCCGCCC | -0.246 E-score |
| AGGCTAGG | -0.14 E-score |
| TCGCATAA | 0.137 E-score |
| ATCCGCGC | -0.191 E-score |
| CCTATTCA | -0.0964 E-score |
| ATTTTAAA | 0.164 E-score |
| AGCGGTTG | -0.0704 E-score |

| Sequence | binding signal |
| --- | --- |
| AAGGGACG | -0.3 E-score |
| AAGCTTAC | -0.0731 E-score |
| TCCCCAAA | -0.0772 E-score |
| AATGTTAG | 0.108 E-score |
| AAATAAGA | 0.0906 E-score |
| AGGCAGAT | -0.285 E-score |
| CACAGCCC | -0.0548 E-score |
| AAATAGGC | 0.0501 E-score |
| GTATCACA | 0.201 E-score |
| TGTCCGAA | -0.147 E-score |
| CAATTAAA | 0.172 E-score |
| TACGTCCA | 0.0811 E-score |
| ATATATGG | 0.279 E-score |
| GCACGGCC | -0.282 E-score |
| CCCCCTCA | -0.304 E-score |
| ATAGTGCC | -0.097 E-score |
| AGATAGTA | 0.376 E-score |
| GAGCTATA | 0.122 E-score |
| AGAAACTC | 0.0994 E-score |
| GAGGAGGA | -0.348 E-score |
| GTAGGCTA | -0.14 E-score |
| CGCACAGA | -0.0699 E-score |

| Sequence | binding signal |
| --- | --- |
| ATAGACTC | -0.0758 E-score |
| ACCGAGAT | -0.0432 E-score |
| CCGTCAGG | -0.247 E-score |
| GTAAACAA | -0.0801 E-score |
| ACGTGCGA | 0.0156 E-score |
| ACGCACTC | 0.0103 E-score |
| CCATTTGA | -0.134 E-score |
| CCGCACAA | -0.16 E-score |
| AAGGCCCC | -0.375 E-score |
| GATCGACA | -0.145 E-score |
| ACGAGGTC | 0.108 E-score |
| CCGTTCTC | -0.149 E-score |
| CACAAAAG | -0.0713 E-score |
| GGCCATTA | 0.12 E-score |
| GCGGGCAC | -0.232 E-score |
| CCGCATGA | -0.456 E-score |
| CTTTAGTA | 0.244 E-score |
| AACACGAT | 0.0135 E-score |
| CAGTATAC | 0.0992 E-score |
| ATCACTTA | 0.18 E-score |
| CCGCCAGC | -0.235 E-score |
| CGACTGAA | -0.021 E-score |

| Sequence | binding signal |
| --- | --- |
| CAGAGCGA | -0.219 E-score |
| ACGAGCGC | -0.0998 E-score |
| CTTTACAC | -0.0852 E-score |
| CGGAGTAA | -0.0311 E-score |
| CCATCCGG | -0.207 E-score |
| AATGTTCG | -0.0868 E-score |
| ACTCCTAA | 0.0798 E-score |
| GAACCGGA | -0.255 E-score |
| CATGCAGA | -0.0987 E-score |
| ATTGCCTC | -0.0892 E-score |
| GCACTATA | 0.0612 E-score |
| GCACAAGA | -0.2 E-score |
| GCGCCCCA | -0.367 E-score |
| CATAATGA | 0.175 E-score |
| AGCCGGCA | -0.106 E-score |
| TACGACAA | 0.151 E-score |
| ATCCTGGA | -0.00701 E-score |
| CGACTAGA | 0.137 E-score |
| CTGCGTAA | -0.147 E-score |
| TACCCGGA | 0.125 E-score |
